# Data from PubChem BioAssay AID2675 (National Center for Advancing Translational Sciences (NCATS), 2010).
# In all, about 280,000 compounds went through this assay and about 100 (0.036%) were called active. This list was built around the results that the source calls inconclusive (neither active nor inactive); the mix of calls is not that of the screen. Calls follow the shape of the dose curve; as a rule, active = well fitted inhibition curve with a large enough effect in the signal ratio, with a control signal flat (not every such curve was filed as active); inconclusive = small, poorly fitted or top-dose-only effect, or effect the other way, or a change in a side signal; inactive = no such curve, though single readings can be large or run the other way; the % refers to the signal ratio. Where the call is inconclusive, the potency comes from a doubtful curve fit. A note “side channel” means that the fit belongs to a control or component signal, not to the main read-out.
# Target: Muscleblind-like protein 1 (Homo sapiens) (UniProt Q9NR56)
# Chain of UniProt Q9NR56 (Q9NR56 whole entry, looked up): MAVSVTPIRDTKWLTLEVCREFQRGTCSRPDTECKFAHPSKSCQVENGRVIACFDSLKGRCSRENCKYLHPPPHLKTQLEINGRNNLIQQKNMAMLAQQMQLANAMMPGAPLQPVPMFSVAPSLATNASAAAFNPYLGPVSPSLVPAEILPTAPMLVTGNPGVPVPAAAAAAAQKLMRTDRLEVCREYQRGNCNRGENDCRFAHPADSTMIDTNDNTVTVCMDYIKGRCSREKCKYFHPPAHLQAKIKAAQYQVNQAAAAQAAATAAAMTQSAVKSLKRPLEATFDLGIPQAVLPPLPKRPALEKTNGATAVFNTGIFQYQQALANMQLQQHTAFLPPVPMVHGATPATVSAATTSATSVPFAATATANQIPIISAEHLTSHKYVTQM
# Assay: qHTS Assay for Inhibitors of MBNL1-poly(CUG) RNA binding
# Conditions: TR-FRET MBNL1-His/biotin-(CUG)12 binding, 665/545 ratio; activity change, negative = inhibition: at 57.5 µM (top of the series)
# In short: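 TR-FRET readout: Ex 340 nm, 665/545 nm emission ratio, normalized to buffer-only (basal) and MBNL1-(CUG)12 controls. Complex of MBNL1-His with Biotin-(CUG)12, compounds 92 nM–58 uM, incubated 60 min at room temperature.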
# % is scaled to controls: 0 for no effect and ±100 for the full control effect; potency is read from the fitted curve at half-maximal effect; tags tell the direction and shape of the fitted curve or compound fluorescence and quenching.
SMILES,Potency,"activity change, negative = inhibition"
Cc1cc(C)c(C#N)c(SCC(=O)Nc2ccc(S(=O)(=O)Nc3ncccn3)cc2)n1,"inconclusive: 12.6 µM [quencher, side channel, partial curve]",
N/C(=N\N=C\c1ccc(Br)o1)c1nonc1N,"inconclusive: 39.8 µM [quencher, side channel, single point]",
CCOC(=O)NC(=O)/C(C#N)=C/c1ccc(N(C)C)cc1,"inconclusive: 15.8 µM [quencher, side channel, partial curve]",
Cc1nnc(SCC(=O)NC2CCCc3c2cnn3-c2ccccc2F)o1 (centres undefined),,inactive: -4.08%
Cc1ccc(OCCN2C(=O)C(=O)c3cc(C)ccc32)cc1,"inconclusive: 31.6 µM [quencher, side channel, single point]",
COC(=O)CC1=NN(c2ccc(OC)cc2)C(=O)/C1=C\c1ccc(Cl)cc1,,inactive: 0.439%
CCOC(=O)CC(=O)CSc1ccc2nnc(-c3ccc(C)cc3)n2n1,"inconclusive: 20 µM [quencher, side channel, partial curve]",
O=C(O)CSc1nc2ccccc2c(=O)[nH]1,,inactive: 2.18%
CCOc1cc(C=O)ccc1OCCn1c([N+](=O)[O-])cnc1C,"inconclusive: 22.4 µM [quencher, partial curve]",
CC(C)(C)NC(=O)CN(C(=O)CN1C(=O)C(=O)c2ccccc21)C(C)(C)C,"inconclusive: 7.94 µM [quencher, side channel, partial curve]",
COc1cc(C(=O)NCC(C)C)c([N+](=O)[O-])cc1OC,"inconclusive: 8.91 µM [quencher, side channel, partial curve]",
COc1cc(/C=C2\SC(=O)N(c3ccccc3Cl)C2=O)cc([N+](=O)[O-])c1O,"inconclusive: 25.1 µM [quencher, side channel, partial curve]",
COc1ccc([N+](=O)[O-])cc1-n1cccc1,"inconclusive: 11.2 µM [quencher, side channel, partial curve]",
N#C/C(=C/c1cn(CC(=O)O)c2ccccc12)C(=O)Nc1ccccc1,"inconclusive: 22.4 µM [quencher, side channel, partial curve]",
Cc1ccc(C2C(C(=O)c3cccs3)=C(O)C(=O)N2CCN2CCOCC2)o1 (centres undefined),"inconclusive: 11.2 µM [quencher, side channel, partial curve]",
O=C(NC(=S)Nc1cccc(F)c1)c1cccc([N+](=O)[O-])c1,"inconclusive: 11.2 µM [quencher, side channel, partial curve]",
CCN(CC)CC(=O)Nc1cccc2c1C(=O)c1ccccc1C2=O,"inconclusive: 3.98 µM [quencher, side channel, full curve]",
CCN1CCN(C(=O)CN2C(=O)c3cccc4cccc2c34)CC1,"inconclusive: 3.98 µM [quencher, side channel, full curve]",
COc1ccc(-c2[nH]ncc2/C=C(/C#N)C(=O)NC2CCCCC2)cc1,"inconclusive: 22.4 µM [quencher, side channel, single point]",
CCN(CC)Cc1c(O)c(Cl)cc2c(C)c(C)c(=O)oc12,"inconclusive: 20 µM [quencher, side channel, single point]",

SMILES,Potency,"activity change, negative = inhibition"
CC(=O)COC(=O)C1CCN(S(=O)(=O)c2cc([N+](=O)[O-])ccc2Cl)CC1,"inconclusive: 12.6 µM [quencher, side channel, partial curve]",
O=C(N/C(=C/c1ccc(Cl)cc1)c1nc2ccccc2[nH]1)c1ccco1,,inactive: -1.04%
C#CCSc1nccc(-c2nn(-c3ccc(C)cc3)ccc2=O)n1,"inconclusive: 15.8 µM [quencher, partial curve]",
C=CCN1CN(Cc2ccco2)CNC1=S,,inactive: -3.36%
COc1ccc(/C=N/NC(=O)c2cccnc2)c2ccccc12,"inconclusive: 20 µM [quencher, side channel, partial curve]",
COc1nc(NCCO)nc(Nc2ccc([N+](=O)[O-])cc2)n1,"inconclusive: 14.1 µM [quencher, side channel, partial curve]",
O=C(/C=C/c1cccs1)N1CCC2(CC1)Oc1ccc(F)cc1C(=O)C21CC(c2ccccc2)=NO1 (centres undefined),,inactive: -0.758%
O=C(NCC1CCCCC1)C12CN(Cc3ccccc3)CC1C(c1cccc([N+](=O)[O-])c1)=NO2 (centres undefined),"inconclusive: 35.5 µM [quencher, side channel, single point]",
O=C1Nc2ccc(S(=O)(=O)N3CCCC3)c3cccc1c23,"inconclusive: 25.1 µM [quencher, side channel, partial curve]",
COc1ccc(NC(=O)COC(=O)c2cc(SC)ccc2Cl)c(OC)c1,"inconclusive: 44.7 µM [fluorescent, side channel, partial curve, poor fit]",
COc1cccc(N=Nc2c(=O)[nH]n3c(C)cc(C)nc23)c1,"inconclusive: 7.94 µM [quencher, side channel, partial curve]",
CCN(CC)c1ccc(C(=O)Nc2cccc(F)c2)cc1,,inactive: -7.04%
CCn1c(O)c(N=NC(=O)C(O)c2ccccc2)c2ccccc21 (centres undefined),"inconclusive: 12.6 µM [quencher, side channel, partial curve]",
O=C(N/N=C/c1ccoc1)c1ccc([N+](=O)[O-])cc1,"inconclusive: 15.8 µM [quencher, side channel, partial curve]",
CC(/C=N\NC(=O)CN1CCN(S(=O)(=O)c2ccc(C)cc2)CC1)=C\c1ccccc1,,inactive: 13.5%
CCOc1cc(/C=C2/SC(=S)NC2=O)ccc1OC(=O)c1ccco1,,inactive: 11.9%
O=C(Nc1cccn(Cc2c(Cl)cccc2Cl)c1=O)C1CC1,,inactive: 10.5%
CCc1ccccc1NC(=O)CN(C)C(=O)CSc1nc2cc(Cl)ccc2s1,"inconclusive: 2.51 µM [fluorescent, side channel, full curve]",
CCC1(c2ccccc2)NC(=S)N(c2ccc(C)c(C)c2)N1 (centres undefined),"inconclusive: 44.7 µM [quencher, side channel, partial curve, poor fit]",
